Experimental data: PubChem BioAssay AID485344 (National Center for Advancing Translational Sciences (NCATS), 2010)
About 6,900 (2%) of roughly 340,000 compounds were called active. Rule as the data show it: active = inhibition above about 30%; inactive = below that, where a call was filed. The entries are a selection whose mix differs from that of the whole data set. The source gives no active or inactive call for entries shown without one.

These molecules were tested against D(2) dopamine receptor (Homo sapiens) (UniProt P14416) (assay: HTS Assay for Allosteric Antagonists of the Human D2 Dopamine Receptor: Primary Screen for Antagonists). Conditions: HEK293 TREx D2 cells, calcium flux, dopamine EC80; at 10 µM; stronger effect = higher value.
Outline: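 Tetracycline-induced HEK293 TREx cells expressing D2 receptor forced-coupled to calcium signalling, loaded with no-wash calcium dye. Compounds added and calcium flux read 180 s, then dopamine added at EC80 and read a further 180 s.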
Also: 0% is about no effect.

Chain of UniProt P14416 (P14416 whole entry, looked up): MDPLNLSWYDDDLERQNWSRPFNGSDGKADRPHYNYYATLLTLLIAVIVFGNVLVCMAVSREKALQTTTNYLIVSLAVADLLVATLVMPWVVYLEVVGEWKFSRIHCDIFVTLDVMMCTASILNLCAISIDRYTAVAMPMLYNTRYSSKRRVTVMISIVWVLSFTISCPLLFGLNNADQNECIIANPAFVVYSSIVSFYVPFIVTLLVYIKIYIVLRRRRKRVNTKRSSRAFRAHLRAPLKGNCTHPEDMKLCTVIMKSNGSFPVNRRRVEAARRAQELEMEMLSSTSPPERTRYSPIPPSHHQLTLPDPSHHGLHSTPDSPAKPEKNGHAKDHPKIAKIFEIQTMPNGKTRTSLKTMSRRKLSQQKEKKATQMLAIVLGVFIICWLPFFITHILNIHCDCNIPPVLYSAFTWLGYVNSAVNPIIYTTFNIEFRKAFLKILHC

| Compound | inhibition |
| --- | --- |
| Cc1cc(Cl)ccc1OCC(=O)Nc1c(C(=O)c2ccccc2)oc2ccccc12 | 12.6% |
| Cn1c(=O)cc(SCC(=O)N2CCN(c3ccccc3F)CC2)c2cc(Cl)ccc21 | 0.351% |
| COc1ccc(CNC(=O)CSc2n[nH]c(-c3ccc(OC)cc3)n2)cc1 | 18.9% |
| Cc1ccc(NC(=O)c2cc3c([nH]c2=O)CC(C)(C)CC3=O)c(C)c1 | -0.754% |
| COc1ccc(-c2cc(C(C)=O)c(C)n2CCC(=O)Nc2ccc(C(F)(F)F)cc2)cc1 | -0.457% |
| CCOc1cc(CN2CCN(c3ncccn3)CC2)ccc1OC | active: 77.3% |
| Nc1nonc1C(=O)NCCNCc1ccc(Cl)c(Cl)c1 | -21.3% |
| CCn1ccc2c(OCC(=O)NCc3ccc(C)cc3)cccc2c1=O | 20.3% |
| COc1ccccc1NC(=O)Cn1c(=O)n(Cc2ccccc2)c(=O)c2c3c(sc21)CN(C(C)=O)CC3 | -6.73% |
| Cc1cc(C)nc(-n2nc(C)c3c2NC(=O)CC3c2cc(F)ccc2F)n1 (stereo unspecified) | 5.15% |
| CCn1nc(C)c(CCN(C)C(=O)Nc2cc(C)cc(C)c2)c1C | -3.97% |
| O=C(Nc1cnc(N2CCC(N3CCCCC3)CC2)c(C(=O)O)c1)c1ccc(Br)cc1 | -2.99% |
| Cc1ccc(CSc2nc3ccc(NC(=O)COc4ccc(F)cc4)cc3s2)cc1 | 9.69% |
| O=C(NCCc1cccc(F)c1)C1CCC(=O)N(C2CCCCCC2)C1 (stereo unspecified) | active: 33.6% |
| COc1ccc(-n2c(=O)c3c(c4cc(OC)ccc4n3C)n(Cc3ccc(F)cc3Cl)c2=O)cc1 | -5.97% |
| O=C(Nc1ccc(C(=O)NCCCN2CCN(c3ccc(F)cc3)CC2)cc1)C1=CSCCO1 | active: 69.3% |
| COc1ccccc1NC(=O)c1c(NC(=O)Cc2ccccc2)sc2c1CCC(C(C)(C)C)C2 (stereo unspecified) | -28.2% |
| CCc1ccc(CNC(=O)Cn2c(-c3cccs3)cc3cc(F)ccc32)cc1 | -15.5% |
| COCCn1ccc2c(OCC(=O)Nc3ccccc3F)cccc2c1=O | 20.6% |
| COC(=O)C1=C(C(=O)c2ccc(C)cc2)C(c2ccc(OC)c(OC)c2)n2nnnc2N1 (stereo unspecified) | active: 32.8% |
| CCOC(=O)C1(CC2CCCCO2)CCN(C(=O)Nc2ccc(C(=O)OC)cc2)CC1 (stereo unspecified) | active: 31.9% |
| CCOC(=O)N1CCc2c(sc3c2c(=O)n(CCc2ccccc2)c(=O)n3CC(=O)Nc2cccc(C)c2)C1 | -1.76% |
| CC(C)(C)C1CCc2c(sc3nnn(CCOc4ccccc4)c(=O)c23)C1 (stereo unspecified) | -11% |
| Cc1ccc(C)c(NC(=O)c2nn(C)c3c2CS(=O)(=O)c2ccccc2-3)c1 | -3.9% |
| COc1cc(/C=C/c2nc(C#N)c(NCCc3ccccc3)o2)cc(OC)c1OC | -5.55% |
| Cc1ccc(CNC(=O)c2ccc(-c3nc(CS(=O)c4ccccc4)c(C)o3)cc2)cc1 (stereo unspecified) | 1.42% |
